# Test results taken from the supplement of paper PMC9446081.
# Among all 39,000 compounds or so, about 220 (0.56%) showed activity. The list shows a part of the results.
# Test system: Escherichia coli K-12 BW25113
# Assay: relative growth (OD600 normalised to plate interquartile mean) (fraction); higher = less growth inhibition, active = 0.2 or less
# Details: 50 µM; LB; incubation time: overnight (16-24 h)
# 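Also: static incubation at 37 °C against the wild-type strain, values averaged over two biological replicates.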
row,Compound,relative growth
1,CC[C@@H](C[C@@H](O)[C@@H](C)[C@H]1CC[C@H]2C3=CC(=O)[C@H]4[C@H](C)[C@@H](OC(=O)c5ccccc5)CC[C@]4(C)[C@H]3CC[C@]12C)C(C)C,inactive: 0.967
2,Cc1ccc(S(=O)(=O)N(C)C[C@H]2Oc3ccc(NC(=O)Cn4cnnn4)cc3C(=O)N([C@H](C)CO)C[C@H]2C)cc1,inactive: 1
3,COc1ccc2c3c(n(c2c1)C)[C@H](CO)N(C[C@]13CCN(CC1)C(=O)CN1CCOCC1)C(=O)Nc1ccc(cc1)F,inactive: 0.984
4,C[C@H](CO)N1C[C@H](C)[C@H](CN(C)Cc2ccc3c(c2)OCO3)Oc2cc(C#CCN(C)C)ccc2S1(=O)=O,inactive: 1.01
5,O=C(NO)c1cn(-c2cccc(C(=O)N3CCC4(CC3)C(=O)NCN4c3ccccc3)c2)nn1,active: 0.0368
6,C[C@H](CO)N1C[C@H](C)[C@@H](CN(C)CC2CC2)Oc2c(NC(=O)Nc3cccc4ccccc34)cccc2C1=O,inactive: 1.01
7,C[C@@H]1CN([C@@H](C)CO)C(=O)Cc2cc(NS(=O)(=O)c3cn(C)cn3)ccc2O[C@H]1CN(C)S(C)(=O)=O,inactive: 0.986
8,O=C(O)c1ccnc(N2CC(O)(c3ccc(OCc4c(-c5c(Cl)cccc5Cl)noc4C4CC4)cc3Cl)C2)c1,inactive: 1.02
9,C=C1C(=O)N(OCC)c2ccccc2[NH+]1[O-] (stereo not given),inactive: 1
10,C[C@@H]1CCCCO[C@@H](CN(C)S(=O)(=O)c2ccccc2)[C@@H](C)CN([C@H](C)CO)C(=O)c2cc(NC(=O)Nc3ccc(F)cc3)ccc2O1,inactive: 1.02
11,COc1ccc(S(=O)(=O)Nc2ccc3c(c2)C(=O)N([C@@H](C)CO)C[C@@H](C)[C@@H](CN(C)C(=O)CCC(F)(F)F)OCCCC[C@@H](C)O3)cc1,inactive: 0.986
12,COc1ccc(S(=O)(=O)Nc2ccc3c(c2)C(=O)N([C@H](C)CO)C[C@H](C)[C@H](CN(C)CC2CC2)O3)cc1,inactive: 1.01
13,C[C@H](CO)N1C[C@H](C)[C@@H](CN(C)C(=O)CN2CCOCC2)Oc2ncc(/C=C/c3ccccc3)cc2C1=O,inactive: 0.995
14,C[C@@H]1CCCCO[C@@H](CN(C)Cc2ccc(C(=O)O)cc2)[C@H](C)CN([C@@H](C)CO)C(=O)c2cc(NC(=O)CCC(F)(F)F)ccc2O1,inactive: 1.03
15,COCC#Cc1cnc2c(c1)C(=O)N([C@H](C)CO)C[C@H](C)[C@H](CN(C)C(=O)Nc1ccc(OC)cc1)O2,inactive: 1
16,C[C@@H]1CCCCO[C@H](CN(C)Cc2ccc3c(c2)OCO3)[C@H](C)CN([C@@H](C)CO)C(=O)c2cc(NS(=O)(=O)c3ccc(Cl)cc3)ccc2O1,inactive: 0.98
17,CC(C)(C)[S@@](=O)N1Cc2cc(C(=O)N3CCc4ccccc4C3)nc(-c3cccc(-c4ccncc4)c3)c2[C@H]1CCO,inactive: 0.961
18,Nc1nnc(CNC(=O)c2ccccc2)[nH]1,inactive: 1.05
19,C[C@@H]1CCCCO[C@@H](CN(C)C(=O)c2ccccc2)[C@H](C)CN([C@@H](C)CO)C(=O)c2cc(NS(=O)(=O)c3cccs3)ccc2O1,inactive: 0.999
20,Cc1noc(C)c1NC(=O)Nc1ccc2c(c1)CC(=O)N([C@@H](C)CO)C[C@H](C)[C@H](CN(C)Cc1ccc(C(F)(F)F)cc1)O2,inactive: 0.958

row,Compound,relative growth
1,Nc1ccccc1C(=O)N[C@H]1CCCCNC1=O,inactive: 0.968
2,CN(C)CC(=O)N[C@H]1C=C[C@@H](CC(=O)NCCN2CCCCC2)O[C@H]1CO,inactive: 0.932
3,Cc1ccc(S(=O)(=O)Nc2ccc3c(c2)CC(=O)N([C@H](C)CO)C[C@@H](C)[C@@H](CN(C)S(=O)(=O)c2cccs2)O3)cc1,inactive: 1.01
4,Cn1cnc2c1[C@H](C(=O)N1CCN(c3ccccc3)CC1)N(S(C)(=O)=O)CC2,inactive: 1.01
5,CC(C)NC(=O)Nc1ccc2c(c1)C(=O)N([C@@H](C)CO)C[C@@H](C)[C@@H](CN(C)S(=O)(=O)c1cccs1)O2,inactive: 0.997
6,CN1CCCCC[C@@H]1C(=O)O,inactive: 1.01
7,C[C@@H]1CN([C@@H](C)CO)C(=O)c2cc(NC(=O)Nc3cccc4ccccc34)ccc2O[C@H]1CN(C)Cc1ccc2c(c1)OCO2,inactive: 0.987
8,COc1cc(OC)c(C(C)=O)c(O)c1C,inactive: 0.941
9,C[C@@H]1CCCCO[C@H](CN(C)C(=O)Nc2cccc3ccccc23)[C@@H](C)CN([C@H](C)CO)C(=O)c2cc(NC(=O)Cc3ccccc3)ccc2O1,inactive: 1.03
10,C[C@@H]1CCn2cc(nn2)COC[C@@H](Cc2ccccc2)NC(=O)[C@H](C)CCn2cc(nn2)COC[C@@H](Cc2ccccc2)NC1=O,inactive: 0.997
11,CC=Cc1ccc2n(c1=O)C[C@H]1[C@H](CO)[C@@H](C(=O)NCCCN3CCOCC3)[C@@H]2N1Cc1cocn1,inactive: 0.973
12,O=c1[nH]c(=O)n(C2CC(O)C(CO)O2)cc1C(F)(F)F (stereo not given),inactive: 0.956
13,C[C@@H]1CN([C@H](C)CO)C(=O)Cc2cc(NS(=O)(=O)c3cccs3)ccc2O[C@H]1CN(C)C(=O)Nc1cccc2ccccc12,inactive: 0.988
14,CN1C(C)(C)CCCC1(C)C,inactive: 0.979
15,Nc1nonc1C(=O)N1CCCCC1,inactive: 1.02
16,C[C@H]1CN([C@@H](C)CO)C(=O)c2cc(NC(=O)c3ccncc3)ccc2O[C@@H]1CN(C)C(=O)Nc1ccc2c(c1)OCO2,inactive: 0.977
17,C[C@@H]1CCCCO[C@@H](CN(C)Cc2ccccc2)[C@H](C)CN([C@H](C)CO)C(=O)c2cc(NC(=O)NC3CCCCC3)ccc2O1,inactive: 0.971
18,Cc1cc(O)c(C=O)c2c1C(=O)Oc1c(C)c(O)c3c(c1O2)C(O)OC3=O (stereo not given),inactive: 0.948
19,COc1ccc2c(c1)[C@]1(C[C@H]1c1ccc3c(/C=C/c4ccc(CN5C[C@@H](C)O[C@@H](C)C5)cc4)[nH]nc3c1)C(=O)N2,inactive: 1.04
20,Cc1ccc(S(=O)(=O)Nc2ccc3c(c2)C(=O)N([C@@H](C)CO)C[C@H](C)[C@@H](CN(C)C(=O)Nc2cccc4ccccc24)OCCCC[C@@H](C)O3)cc1,inactive: 0.987
